From the supplement of paper PMC3334620
Over roughly 33,000 sequences, “E-score (-0.5 to 0.5)” has its median near -0.016; the highest 2% begin near 0.31. Some of the results follow.

Biological target: Cst6 (UniProt P40535)
Assay: PBM E-score (8-mer binding enrichment) (E-score (-0.5 to 0.5)); higher = stronger / more preferred TF binding; most listed sequences are background and not binding sites
Details: protein concentration: 200 nM; construct: GST-DNA-binding domain
How it was run: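 PURExpress in vitro transcription/translation supplied GST-tagged yeast transcription factors, either full-length or DNA-binding domain. Applied at about 100-200 nM to universal all-10-mer Agilent arrays double-stranded by primer extension, the bound protein was detected with fluorescent anti-GST. E-scores, modified Wilcoxon-Mann-Whitney statistics, were given by the Universal PBM Analysis Suite to ungapped eight-base words pooled with their reverse complements after masliner normalisation.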

Sequence	PBM E-score
CGATAAGA	0.0238
CGTCTGAG	0.00936
GGTGGCAA	-0.248
AGAGTTGG	-0.0839
CAAGGTAC	-0.0891
CATGTCTC	-0.11
CGTTCATC	0.054
ATACGTAC	0.198
ATTACAGA	0.187
AAGAAGTG	0.0573
CGCTAACA	0.0299
TCTTGCAA	0.105
ATATTTTA	0.233
CGAGTATA	0.0251
ACATATGC	-0.158
CCCAGGGA	-0.37
CGAAATCC	0.00971
TGGAGTAA	0.168
AACAGCCT	-0.126
ATCCTGAC	0.0527
GCCACCGA	-0.104
AGACCGAC	-0.12
AGCACTGA	-0.029
ACGTTATC	0.269
ACAAGCCC	-0.13

Sequence	PBM E-score
CCGGACCA	-0.206
ACTTGCGA	-0.0637
AAGTATAT	0.17
ATGGCGTC	0.311
AGCTTCCG	-0.0727
CCATGTCG	-0.0363
CGAATTAA	0.136
AAACGTGC	0.143
CCCATAAC	-0.065
AGTTTATA	0.22
ATCAGTAG	0.00344
ATCCGACC	-0.0828
ACTGCGCA	-0.101
AATTACTG	0.0926
ACCCCATC	-0.154
ACAGTTGA	-0.125
CATGGACC	-0.233
AGGTAAAG	0.122
CCTTGGAC	-0.23
CTTAGTGC	-0.0727
GGGGACAC	-0.323
AGCAAGCG	-0.11
GGCAGCCC	-0.402
CCATGTCA	0.134
GAAGGCAC	0.149

Sequence	PBM E-score
CCTGAACC	0.00416
GTATACAC	0.0838
AGCCGGAG	-0.0357
AGGATCGA	-0.182
ACAGGCAT	-0.0588
CCCGCTTC	-0.386
GTTAAAAA	0.22
ATCAATTC	0.101
ACCAGCCT	-0.213
GCTTGTCC	-0.157
CCAGCGAG	-0.21
CTTGGAAA	-0.0382
AGGAGGAT	-0.153
CACCGGGC	-0.265
GGGGGTGA	-0.16
AACCCACT	0.00057
AAGCCTAC	-0.0426
GTGTCCGA	-0.0583
AAGACCTT	0.0815
ATTCCGTC	0.159
TGTCCAAA	0.129
GTTGCGCA	-0.153
AGCTGGGA	-0.266
CACAGCCA	-0.00605
AGGCCGTC	-0.129

Sequence	PBM E-score
GAGTACCC	-0.275
CGCCCAGC	-0.0744
GCGTAGGA	-0.2
CTGAACAC	0.178
AGCCATCC	-0.139
AGGTATAG	-0.151
CACGACCA	-0.00602
CTACCTGC	-0.173
ATCCGAGA	-0.0313
GGCCTAAA	-0.148
ACAGACAG	0.0695
ACCAGTGG	-0.059
ACTGTCGA	-0.0803
GACGTCGA	0.292
ATCCTTTC	-0.0433
GGCGGGGA	0.0792
CCGATCTA	-0.27
ACAGTGGT	-0.173
CGAAACGC	-0.00127
AGTAGCGG	-0.119
GAATGCCA	-0.0431
GCGTCAAA	0.151
CGGTTACC	-0.114
ACACGCGT	0.0501
AGTTGCTC	-0.14

Sequence	PBM E-score
GCAACGCC	0.0909
ATATTAAG	0.212
AAAACTTT	-0.0281
AACGGCCA	-0.0759
CACTGGTC	-0.0469
AAATGACC	0.102
AAACTCAC	0.0463
ACGACTGC	-0.216
GAGCCACA	-0.108
CGCCAAAG	-0.258
ATAGATTG	0.14
CTGTGCTA	-0.119
CTATCGCA	-0.0325
GCCTTGTA	0.0465
ATGTGACA	0.151
CGTAGGTA	-0.108
CCCAATCA	-0.0676
CAAGTGCG	0.0417
CGCAGAAG	0.0478
ATACCGGA	-0.0794
AGGCCGGG	-0.325
AGATCTCC	-0.222
GGGTCGAA	-0.256
TCGCGCGA	0.169
AGAACTAG	-0.143

Sequence	PBM E-score
ATTGATCC	0.0874
TAACGTTA	0.149
CGAATACC	-0.16
AGATCCAA	-0.0337
GAACATGA	0.0785
CCGCTTAC	-0.035
CGAAATTA	0.192
CATCCCGG	-0.262
ACCTGTAG	-0.156
GTGGCAGA	-0.091
ATGTGCCG	0.0266
ACAAGAAG	0.184
ATAAGAGG	-0.00512
ATCGATTG	0.162
AACGCCAG	0.00194
GCAAGGGC	-0.343
CCGGCACC	-0.146
CTTATGCC	0.0646
CACGCGCG	0.0389
TTGCCAAA	0.0215
AACCCTGA	0.0815
TACAAACA	0.203
CATGCCTA	-0.316
CCCTCGCC	-0.258
CGGTCCAC	-0.285

Sequence	PBM E-score
AAGAGCCG	0.0758
GGGCACGA	-0.114
GCCCCGGC	-0.326
AGCTACTA	0.0479
GACTTATC	-0.151
CACTTGAC	0.0552
TAGAATGA	0.221
ACCAGTCC	-0.426
ACTTTTTG	0.142
GTACTACA	0.172
ATCCCGAG	-0.0445
ATTAGGCC	-0.0871
GAGGAATA	0.0369
CATGTTAA	0.172
GCCGCGAC	-0.0175
AATCATCG	0.039
GGGCGACA	-0.176
GTACAGGA	-0.0291
ACGCCGTG	0.383
ACTGTAAT	0.114
ATTCTCAC	0.167
CTAGAGCA	-0.136
